First the molecules themselves.
B1: PhoQ; a variant is named by its letters at X, in order, P23837 (parent)
chain: MKKLLRLFFPLSLRVRFLLATAAVVLVLSLAYGMVALIGYSVSFDKTTFRLLRGESNLFYTLAKWENNKLHVELPENIDKQSPTMTLIYDENGQLLWAQRDVPWLMKMIQPDWLKSNGFHEIEADVNDTSLLLSGDHSIQQQLQEVREDDDDAEMTHSVAVNVYPATSRMPKLTIVVVDTIPVELKSSYMVWSWFIYVLSANLLLVIPLLWVAAWWSLRPIEALAKEVRELEEHNRELLNPATTRELTSLVRNLNRLLKSERERYDKYRTTLTDLTHSLKTPLXXLQXXLRSLRSEKMSVSDAEPVMLEQISRISQQIGYYLHRASMRGGTLLSRELHPVAPLLDNLTSALNKVYQRKGVNISLDISPEISFVGEQNDFVEVMGNVLDNACKYCLEFVEISARQTDEHLYIVVEDDGPGIPLSKREVIFDRGQRVDTLRPGQGVGLAVAREITEQYEGKIVAGESMLGGARMEVIFGRQHSAPKDE

This is one part of the list.

In this assay the parent is B1. Put plainly: enrichment ratio after two sorts for PhoP signalling (ratio (wild type AVST 3.29)); higher = more functional. The settings on record: with PhoP (E. coli).
On to SSHS, for which the enrichment ratio was at most 0.25.

On to MVPH, for which the enrichment ratio is at most 0.25. Next, GKLE: at most 0.25; IIDK: at most 0.25. Next, RNCE: at most 0.25. Next, FIPF: at most 0.25; PPTF: at most 0.25.

With IFDN, the enrichment ratio is at most 0.25.

As to WDSV, the enrichment ratio was at most 0.25.

Turning to NYPS, the enrichment ratio is at most 0.25. For the variant NKRP, the enrichment ratio is at most 0.25. For HWKP, the enrichment ratio was at most 0.25. HQIH: the enrichment ratio was at most 0.25.

Take KRRV: the enrichment ratio is at most 0.25.

Turning to DHSM, the enrichment ratio is at most 0.25. Turning to NGDC, the enrichment ratio was at most 0.25. Take QAKI: the enrichment ratio is at most 0.25. Consider SYYK, for which the enrichment ratio was at most 0.25.

Turning to KAAE, the enrichment ratio was at most 0.25.

Regarding RCHA, the enrichment ratio was at most 0.25. For the variant AYTK, the enrichment ratio is at most 0.25. Next, YVGK: at most 0.25; AVAF: 8.24; VAID: at most 0.25. As for LFHT, the enrichment ratio is at most 0.25. On to ICLH, for which the enrichment ratio is at most 0.25. With HLCL the figure was 1.19. As for TASM, the enrichment ratio amounted to 13.4.

Turning to NSTF, the enrichment ratio is at most 0.25.

On to ELQV, for which the enrichment ratio was at most 0.25. Next, FYQG: at most 0.25. As for FMVV, the enrichment ratio was at most 0.25.

As for GGSN, the enrichment ratio is at most 0.25. Regarding ICKS, the enrichment ratio was at most 0.25. Next, EEYD: at most 0.25.

Regarding TDKG, the enrichment ratio was at most 0.25. On to LIVM, for which the enrichment ratio is at most 0.25. With NFVK the figure was at most 0.25; with PAIA, at most 0.25; with QMDT, at most 0.25. Consider SRNS, for which the enrichment ratio is at most 0.25. With YNFE the figure was at most 0.25; with NYIW, at most 0.25. With NHAY the figure was at most 0.25; with VMEK, at most 0.25; with GKPP, at most 0.25.

On to HDQK, for which the enrichment ratio is at most 0.25. Next, APNN: at most 0.25; LDKE: 1.03; PLNP: at most 0.25. With YTLP the figure was at most 0.25; with ETRV, at most 0.25; with DGKY, at most 0.25. NYKL: the enrichment ratio was at most 0.25. With WINL the figure was at most 0.25; with ERKF, at most 0.25.

Regarding NLQH, the enrichment ratio was at most 0.25. For the variant YPMA, the enrichment ratio was at most 0.25.

Regarding AWLC, the enrichment ratio is at most 0.25. Next, NNTI: 1.55. Next, QSHY: 8.12; YVCM: at most 0.25; FGNG: at most 0.25. Next, PFMT: at most 0.25. On to MLYA, for which the enrichment ratio is at most 0.25. Next, FIAA: at most 0.25; KVKQ: at most 0.25.

For GFSN, the enrichment ratio was at most 0.25. On to HKFA, for which the enrichment ratio was at most 0.25. With QQPH the figure was at most 0.25; with WHHK, at most 0.25. Next, AAYL: at most 0.25. On to VPDH, for which the enrichment ratio is at most 0.25. Next, ESNT: at most 0.25; GMAR: at most 0.25; KYRF: at most 0.25. With YGVP the figure was at most 0.25; with VYIS, at most 0.25; with LHRN, at most 0.25.

IAYF: the enrichment ratio is at most 0.25. With WEHV, the enrichment ratio was at most 0.25.

As to CFYP, the enrichment ratio is at most 0.25. With ILIN the figure was at most 0.25; with SCMT, 9.91. On to RGWM, for which the enrichment ratio was at most 0.25.

On to KSQA, for which the enrichment ratio was at most 0.25. Next, EESA: at most 0.25. With APIY the figure was at most 0.25. On to KCTH, for which the enrichment ratio was at most 0.25. With VWCK the figure was at most 0.25; with VADW, at most 0.25; with RKHQ, at most 0.25. With TQFD, the enrichment ratio was at most 0.25.

For the variant GTSD, the enrichment ratio was at most 0.25. With AEWF the figure was at most 0.25.

For GPCP, the enrichment ratio was at most 0.25. Next, YVTH: 0.76; MIMA: at most 0.25; FAKF: at most 0.25. Consider TGPE, for which the enrichment ratio was at most 0.25. In the case of NHPA, the enrichment ratio was at most 0.25. Turning to TQVP, the enrichment ratio was at most 0.25. Take SCTV: the enrichment ratio stood at 9.96. Next, MHYV: at most 0.25; PPRF: at most 0.25; KPPE: at most 0.25. For the variant DWFN, the enrichment ratio was at most 0.25.

As for LVQH, the enrichment ratio is at most 0.25. Next, TLSN: 9.08.

Consider INHR, for which the enrichment ratio was at most 0.25. On to ERFE, for which the enrichment ratio was at most 0.25. As to VNET, the enrichment ratio is at most 0.25.

On to ELII, for which the enrichment ratio is at most 0.25.

For the variant ATSF, the enrichment ratio was 11.9. SLVQ: the enrichment ratio was determined as 0.637. As for SHDF, the enrichment ratio was at most 0.25. With KPTH the figure was at most 0.25. With FFMD, the enrichment ratio was at most 0.25. Turning to PANP, the enrichment ratio is at most 0.25. Next, GHQV: at most 0.25; PHWM: at most 0.25. On to GNDG, for which the enrichment ratio was at most 0.25. With SPQV the figure was at most 0.25; with ASKN, at most 0.25; with NYCD, at most 0.25. Take QRHK: the enrichment ratio is at most 0.25.

Regarding LTKG, the enrichment ratio was at most 0.25. Next, PDMA: at most 0.25; AVLY: 0.623. As to HYSP, the enrichment ratio was at most 0.25. On to DCWN, for which the enrichment ratio is at most 0.25. As to SMMS, the enrichment ratio is 14.6. For the variant VFCP, the enrichment ratio was at most 0.25. Next, HMLD: at most 0.25; KTAN: at most 0.25. For GSNI, the enrichment ratio is at most 0.25. Turning to SVGC, the enrichment ratio is 0.96.

Consider GDPP, for which the enrichment ratio was at most 0.25. Take KTLS: the enrichment ratio is at most 0.25. With FVAP the figure was at most 0.25; with EQAY, at most 0.25; with LKCR, at most 0.25.

Take QIKK: the enrichment ratio was at most 0.25. Next, WKMP: at most 0.25; VPKN: at most 0.25; ADFV: at most 0.25. For HHYL, the enrichment ratio is at most 0.25. Next, PWNY: at most 0.25; TCVM: 0.289. Next, NALY: at most 0.25. With KFGS the figure was at most 0.25; with FLYC, at most 0.25; with KILP, at most 0.25.
